Variants at the background level are over-represented here.
B1: TPR 5TU (parent)
chain: GGAUCUUCUCGAUCUAACAAAAAAGACAAAUCUGCCACAAAGCUUGAGAGCAUCUUCGGAUGCAGAGGCGGCAGCCUUCGGUGGCGCGAUAGCGCCAACGUUCUCAACUAUGACACGCAAAACGCGUGCUCCGUUGAAUGGAGUUUAUCAUG

Variants of: B1
Experiment: polymerase ribozyme fitness, log enrichment relative to wild type (log ratio); higher = more active; in vitro selection for triplet polymerase activity
How it was run: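 Mutant libraries of both subunits of a heterodimeric triplet polymerase ribozyme were PCR-built, transcribed, and selected once in triplicate, with frozen incubation at −7 °C and capture of gel-excised extended constructs on streptavidin beads before RT-PCR. Illumina sequencing of input and output libraries was filtered to genotypes with ≥10 input reads and ≥1 read per output. Fitness is the logarithm of genotype enrichment over wild-type enrichment, using inverse-variance-weighted replicate averages. The logarithm is base 2.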

Point of comparison: A12G C35U U55G C87G A115U, “polymerase ribozyme fitness (log ratio)” value -4.17. Against it:
- A12G A24U A73G C75G C85U G141C — lower, ≤ -4.2
- A12G A24U C36G U78G U102G — lower, ≤ -4.2
- A12G A26C C43G C87U U134G — lower, ≤ -4.2
- A12G A26G A37C G46A G59U A89U C93A — lower, ≤ -4.2
- A12G A28C A30C A39U C51U C85G G124C — lower, ≤ -4.2
- A12G A28G A29U C99G G126U — lower, ≤ -4.2
- A12G A29C C43G G50C G67C C99G U101G A115U — lower, ≤ -4.2
- A12G A29G G88U U90C G126A G152A — lower, ≤ -4.2
- A12G A29G U55A C85U C96U C105U — lower, ≤ -4.2
- A12G A30C C85U — lower, ≤ -4.2
- A12G A30G U33G A40G U55C G58C G62A A66C A91G A107U — lower, ≤ -4.2
- A12G A30U A37C C69G C93A C99A G128A U144A C149U U151G — lower, ≤ -4.2
- A12G A30U A91U C95U G100U A107G C114A A122U U144G — lower, ≤ -4.2
- A12G A37C C75A C103G — lower, ≤ -4.2
- A12G A39C G84A A138C G143U U148C — lower, ≤ -4.2
- A12G A39G U53A U56A G58C C79A C118A C149G — lower, ≤ -4.2
- A12G A39U A47U U53A C93A — lower, ≤ -4.2
- A12G A40C A41U A64U G68C C72A U78G A89G C95U G140U — lower, ≤ -4.2
- A12G A40G C54U G59C A60C G94U C96U C99U A142U — lower, ≤ -4.2
- A12G A40G U44A U45A C93G A120U G141U — lower, ≤ -4.2
- A12G A40G U55A G83A U104G — lower, ≤ -4.2
- A12G A40U G88C U104A — lower, ≤ -4.2
- A12G A41C U44A A47C C85U A138C A142U U146A — lower, ≤ -4.2
- A12G A41U C85U U101G C105A G140U G152U — within 0.2 log units, -4.09
- A12G A47C A52C C85A C103U A110G — lower, ≤ -4.2
- A12G A47C A66G G81C C85U A110U — lower, ≤ -4.2
- A12G A47C A73U G88A C125U G133U — lower, ≤ -4.2
- A12G A49C A60C G88U G126U — lower, ≤ -4.2
- A12G A49C C93U U134A U145G — lower, ≤ -4.2
- A12G A49C G58A — lower, ≤ -4.2
- A12G A49C G58C C87A C95U G126A A137G G152A — lower, ≤ -4.2
- A12G A49C G68A C131A G141A U146C U148A — lower, ≤ -4.2
- A12G A49C U53G U135A — lower, ≤ -4.2
- A12G A49G U56A U61A G88A G136C U151G — lower, ≤ -4.2
- A12G A52G A91C C95G C118G — lower, ≤ -4.2
- A12G A52U C76U C93U A120U — higher, -2.12
- A12G A66C G84C G88A A120C — lower, ≤ -4.2
- A12G A73U C96A U109A C116U — higher, -2.66
- A12G C14A A30C A39U A73U U77A C85A C125G — lower, ≤ -4.2
- A12G C14A C57A C85G — higher, -3.75
- A12G C14G A17G A66C C116U U148A — lower, ≤ -4.2
- A12G C14U A19G A21U A28G G65C G84C G124U G143C U145C — lower, ≤ -4.2
- A12G C14U A21C A23C G62C G83U C99U A106G C149U — lower, ≤ -4.2
- A12G C14U G50A U53A C95U C99A C116U A150U — within 0.2 log units, -4.15
- A12G C14U G92U U111C A138U — lower, ≤ -4.2
- A12G C18A A24U C27A C103A U144A — lower, ≤ -4.2
- A12G C18G A29U G34A G74A G136A — lower, ≤ -4.2
- A12G C18G A66U C69G C99A — lower, ≤ -4.2
- A12G C18U A19G G84A G86U C95A C99U U101A C123G — lower, ≤ -4.2
- A12G C18U A24U A28G G50A U53C C79A G80C G94A C116A A138C — lower, ≤ -4.2
- A12G C18U G83U A89G C96U — higher, -1.73
- A12G C27A C76A A147C U148A — lower, ≤ -4.2
- A12G C27G A97G C125U U146A — lower, ≤ -4.2
- A12G C27U A39C C57A C75A C79A G83U A121G — lower, ≤ -4.2
- A12G C27U G46U C57A C85G A122C — higher, -3.63
- A12G C32A G34U A52G C54U U55A C63U C85G G112A A120U U144G — lower, ≤ -4.2
- A12G C36A C69U C85G A89C A113U — lower, ≤ -4.2
- A12G C36A U55G G94A G141C U148G — lower, ≤ -4.2
- A12G C38A C96G — higher, -0.0836
- A12G C43U G59U U82A G117A — lower, ≤ -4.2
- A12G C51G U56A C85U C96G — lower, ≤ -4.2
- A12G C54A C99U — higher, -1.32
- A12G C54A G58C G80U G92A G112C — lower, ≤ -4.2
- A12G C54U A73G G84C C96G C123U — lower, ≤ -4.2
- A12G C54U C69G U145G — within 0.2 log units, -4.06
- A12G C54U C108G U109G U130G — lower, ≤ -4.2
- A12G C54U G68C C99U G133C A137U — lower, ≤ -4.2
- A12G C54U G86U C105U G143A — higher, -2.5
- A12G C54U U56G G59C C63A C72G — lower, ≤ -4.2
- A12G C57A A120G U134G C149A — lower, ≤ -4.2
- A12G C57A G59C C79U C116G G136A G141C A150G U151A — lower, ≤ -4.2
- A12G C63U G83C C95U U109A — higher, -2.16
- A12G C69A C96U A121C U127G A147U — within 0.2 log units, -4.02
- A12G C72U G88U A120U G141U — lower, ≤ -4.2
- A12G C85A — higher, -1.31
- A12G C85A A113U G133A U151A — lower, ≤ -4.2
- A12G C85A C108U — lower, ≤ -4.2
- A12G C85G — higher, -1.96
- A12G C85U — higher, 0.000103
- A12G C85U C129A U151C — lower, ≤ -4.2
- A12G C87A C96U U135C — lower, ≤ -4.2
- A12G C87A G88C C96U — lower, ≤ -4.2
- A12G C93A — higher, -2.26
